Measured values reported in PubChem BioAssay AID485360 (National Center for Advancing Translational Sciences (NCATS), 2010).
The campaign covered roughly 230,000 compounds. About 1,500 (0.65%) were called active. Inconclusive means that the source gave no clear call. Such entries were picked first, then a sample of the others. The call rests on the fitted dose curve; in most records, active means well fitted inhibition curve with a large enough effect; inconclusive means small, poorly fitted or top-dose-only effect; inactive means no such curve, though single readings can be large or run the other way. Potencies beside an inconclusive call are fits to weak or partial responses and may not hold up.

Molecular target: Lethal(3)malignant brain tumor-like protein 1 (Homo sapiens) (UniProt Q9Y468)
UniProt Q9Y468, sequence (Q9Y468 whole entry, looked up): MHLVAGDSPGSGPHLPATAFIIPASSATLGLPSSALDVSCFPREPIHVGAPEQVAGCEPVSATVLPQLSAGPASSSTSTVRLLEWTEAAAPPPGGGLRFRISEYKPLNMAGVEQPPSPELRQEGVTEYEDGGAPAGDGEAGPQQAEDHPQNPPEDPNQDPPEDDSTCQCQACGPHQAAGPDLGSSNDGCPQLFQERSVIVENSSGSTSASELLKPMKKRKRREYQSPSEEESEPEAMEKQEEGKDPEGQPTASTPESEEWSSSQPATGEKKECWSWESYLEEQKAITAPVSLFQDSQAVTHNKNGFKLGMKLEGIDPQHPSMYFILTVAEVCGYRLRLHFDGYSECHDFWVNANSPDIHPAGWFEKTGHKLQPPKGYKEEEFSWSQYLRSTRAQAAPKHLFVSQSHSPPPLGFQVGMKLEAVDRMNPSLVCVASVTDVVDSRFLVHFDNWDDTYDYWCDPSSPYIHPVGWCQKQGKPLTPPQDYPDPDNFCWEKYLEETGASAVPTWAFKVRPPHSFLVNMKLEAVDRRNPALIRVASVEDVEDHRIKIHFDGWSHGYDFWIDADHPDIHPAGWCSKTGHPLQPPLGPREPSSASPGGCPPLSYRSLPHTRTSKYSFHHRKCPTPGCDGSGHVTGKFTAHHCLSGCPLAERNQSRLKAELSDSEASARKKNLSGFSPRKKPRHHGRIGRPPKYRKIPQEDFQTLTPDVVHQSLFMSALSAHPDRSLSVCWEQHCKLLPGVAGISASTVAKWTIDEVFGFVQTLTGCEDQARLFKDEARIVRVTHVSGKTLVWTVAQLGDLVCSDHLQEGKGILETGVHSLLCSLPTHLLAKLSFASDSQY
Assay: qHTS Assay for the Inhibitors of L3MBTL1; further: nearly all actives have a fitted effect of over 60% in size
Details: AlphaScreen L3MBTL1–H3K9me1 peptide binding; activity, negative = inhibition: at 57.1 µM (top of the series)
Procedure, shortened: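 Read-out is AlphaScreen signal from streptavidin donor and nickel chelate acceptor beads (10 ug/mL final each) bridging L3MBTL1 (50 nM) and biotinylated K9-monomethylated H3(1-15) peptide (75 nM), after 30 min compound exposure at room temperature.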
On the % scale 0 is the no-effect control and ±100 the full control effect; potency means the concentration at half of the fitted maximal effect; tags describe the fitted curve by direction and shape.

Row | SMILES | Potency | activity, negative = inhibition
1 | COc1cc(N(Cc2ccccc2)Cc2ccccc2)c2ncn(C(C)C)c2c1 | inconclusive: 20 µM [inhibitor, partial curve] | –
2 | Cc1ccc(C(=O)N2CCN(C(=O)c3ccc(C)cc3)C2)cc1 | – | inactive: 10.7%
3 | Cc1ccc2c(C(=O)N3CCN(c4ccccc4)CC3)cc(-c3cccnc3)nc2c1C | – | inactive: -13.1%
4 | O=C(/C=C/c1ccco1)N1CCN(S(=O)(=O)c2ccccc2)CC1 | inconclusive: 14.1 µM [inhibitor, single point] | –
5 | O=C(N/C(=C\c1ccco1)C(=O)N1CCCCC1)c1ccc([N+](=O)[O-])cc1 | – | inactive: -2.56%
6 | CCOc1ccccc1NC(=O)COc1coc(CN2CCCc3ccccc32)cc1=O | – | inactive: -21.5%
7 | O=S(=O)(Nc1nc2ccccc2nc1Cl)c1ccc(Br)cc1 | inconclusive: 3.55 µM [inhibitor, full curve, poor fit] | –
8 | CC#C[C@]1(O)CC[C@H]2[C@@H]3CCC4=CC(=O)CCC4=C3[C@@H](c3ccc(N(C)C)cc3)C[C@@]21C | – | inconclusive: -43.3% [inhibitor]
9 | CCOc1ccc(-c2nc(CCl)cs2)cc1OC | – | inactive: 7.03% [at 11.4 µM]
10 | Oc1c(Cl)cc(CN2CCOCC2)c2cccnc12 | inconclusive: 28.2 µM [inhibitor, single point] | –
11 | CCCNC(=O)c1ccccc1NS(=O)(=O)c1ccc(OC)c(OC)c1 | inconclusive: 5.01 µM [inhibitor, single point] | –
12 | Oc1c(Br)cc(Br)cc1CNc1cccc2cccnc12 | active: 35.5 µM | –
13 | CCCOc1ccc(-c2nnc(N)s2)cc1 | inconclusive: 39.8 µM [inhibitor, single point] | –
14 | O=C(N/N=C/c1cnc(N2CCCCC2)s1)c1ccc(Cl)cc1 | inconclusive: 7.94 µM [inhibitor, full curve] | –
15 | C=CCN1C=C/C(=C\C=C(C#N)C#N)c2ccccc21 | inconclusive: 2.51 µM [inhibitor, full curve] | –
16 | O=C1C(Cl)=C(N2CCOCC2)C(=O)N1c1cccc(Cl)c1 | – | inactive: 7.84%
17 | CC1Cc2ccccc2N1C(=O)c1ccc(N2CCCCC2)c([N+](=O)[O-])c1 (stereo not given) | inconclusive: 28.2 µM [inhibitor, single point] | –
18 | O=C1C=C(c2ccccc2)OC(=O)C1C(=O)c1ccccc1 (stereo not given) | inconclusive: 3.98 µM [inhibitor, single point] | –
19 | O=C(O)c1cc(NC(=O)c2cccc(C(=O)Nc3cc(C(=O)O)cc(C(=O)O)c3)c2)cc(C(=O)O)c1 | inconclusive: 31.6 µM [inhibitor, partial curve] | –
20 | COC(=O)C(Cc1ccc(O)cc1)NC(=O)CCOc1ccc(OC)cc1 (stereo not given) | – | inactive: -7.61%
21 | Cc1cnc(C(=O)OCc2nc3ccsc3c(=O)[nH]2)cn1 | inconclusive: 39.8 µM [inhibitor, single point] | –
22 | O=C1CC(Nc2ccccc2)C(=O)N1c1ccc(N2CCOCC2)cc1 (stereo not given) | – | inactive: 4.04%
23 | CCOC(=O)c1c(CSc2ccccc2)n(C)c2ccc(O)c(CN3CCN(C)CC3)c12 | inconclusive: 22.4 µM [inhibitor, partial curve] | –
24 | CS(=O)(=O)c1ccc(Cl)c(NC(=O)CN2C(=O)C3CCCCC3C2=O)c1 (stereo not given) | – | inactive: 25%

Row | SMILES | Potency | activity, negative = inhibition
25 | Cc1ccc(O)c(C(=O)c2cc(C#N)c3nc4ccccc4n3c2)c1 | inconclusive: 28.2 µM [inhibitor, partial curve] | –
26 | COc1cc(C2/C(=C(\O)c3cc(C)ccc3C)C(=O)C(=O)N2CCN(C)C)ccc1O (stereo not given) | – | inactive: -10.5%
27 | Cc1ccc2c(c1)c1nnc(SCC(=O)Nc3ccc(N(C)C)cc3)nc1n2CC(=O)O | inconclusive: 28.2 µM [inhibitor, partial curve] | –
28 | CC1=NN(c2ccccc2)C(=O)C1N=Nc1ccccc1 (stereo not given) | – | inactive: -27.9%
29 | CC(=O)N1CCN(C(=S)Nc2ccc(SC(F)F)cc2)CC1 | – | inactive: 6.07%
30 | CCn1c(SCC(=O)c2ccccc2)nc2sc3c(c2c1=O)CCN(C)C3 | inconclusive: 39.8 µM [inhibitor, single point] | –
31 | N#C/C(=C\c1ccco1)C(=O)NCC1CCCO1 (stereo not given) | inconclusive: 31.6 µM [inhibitor, single point] | –
32 | O=C1NNC(c2ccccc2)=N/C1=C\c1ccco1 | inconclusive: 20 µM [inhibitor, single point] | –
33 | O=C1CCc2cc(S(=O)(=O)NC3CCCCC3)cc3c2N1CC3 | inconclusive: 35.5 µM [inhibitor, partial curve] | –
34 | CCOc1cc(N2CCOCC2)c(OCC)cc1NC(=O)c1ccc(OC)cc1 | inconclusive: 22.4 µM [inhibitor, partial curve] | –
35 | C1CCN(C2CCN(c3nc4nonc4nc3N3CCSCC3)CC2)C1 | inconclusive: 28.2 µM [inhibitor, single point] | –
36 | NS(=O)(=O)c1ccc(CCNC(=O)Cc2ccc(S(=O)(=O)N3CCCC3)s2)cc1 | inconclusive: 31.6 µM [inhibitor, single point] | –
37 | O=C(Nc1ccc(Cl)c(Cl)c1)c1cccnc1 | – | inactive: 6.11% [at 2.29 µM]
38 | O=C(COc1cccc2cccnc12)N/N=C/c1cccn1-c1ccc(F)cc1 | – | inactive: -22.5%
39 | COc1ccc(C(=O)NC(=S)NNC(=O)c2cnccn2)cc1 | inconclusive: 3.55 µM [inhibitor, single point] | –
40 | O=C(/C=C/c1ccc(Br)o1)Nc1nccs1 | inconclusive: 31.6 µM [inhibitor, single point] | –
41 | O=C(Cn1c(=O)c(=O)n(Cc2ccccc2)c2ccc(Cl)cc21)Nc1cccc(F)c1 | inconclusive: 6.31 µM [inhibitor, single point] | –
42 | O=C(NNc1ccc(C(F)(F)F)cc1[N+](=O)[O-])c1ccc(NS(=O)(=O)c2ccc(F)cc2)cc1 | inconclusive: 14.1 µM [inhibitor, partial curve] | –
43 | CC12CCC(C(=O)N(c3ccc(Cl)cc3)C1=O)C2(C)C (stereo not given) | – | inactive: 1.64%
44 | CC(C)(C)Sc1ccc(/C=N/O)cc1[N+](=O)[O-] | inconclusive: 28.2 µM [inhibitor, partial curve, poor fit] | –
45 | c1ccc2cc3c(NCCN4CCOCC4)ccnc3cc2c1 | inconclusive: 0.708 µM [inhibitor, partial curve, poor fit] | –
46 | Cc1ccc(O)c(C(=O)c2cnc3c(c2)c(C)nn3-c2ccccc2)c1 | inconclusive: 0.562 µM [inhibitor, single point] | –
47 | O=[N+]([O-])c1cc(/C=N/OCc2c(Cl)cccc2Cl)ccc1N1CCOCC1 | inconclusive: 17.8 µM [inhibitor, partial curve] | –
48 | Cc1cc(-c2nnc(CCC(=O)NC(C)c3ccc(F)cc3)o2)no1 (stereo not given) | – | inactive: 4.3%

Row | SMILES | Potency | activity, negative = inhibition
49 | O=C(CN1C(=O)NC2(CCCC2)C1=O)N1CCN(S(=O)(=O)c2cc(Cl)ccc2Cl)CC1 | – | inactive: -1.71%
50 | N#Cc1ccc(CSc2nnc(NC(=O)c3ccc4ncsc4c3)s2)cc1 | inconclusive: 39.8 µM [inhibitor, single point] | –
51 | CCOc1cc(C2NC(=O)N(C)C(C)=C2[N+](=O)[O-])ccc1OC(C)=O (stereo not given) | inconclusive: 0.398 µM [inhibitor, full curve] | –
52 | CCOC(=O)c1ccc(N=Nc2c(C)[nH]n(-c3ccccc3)c2=O)cc1 | – | inactive: -3.96%
53 | N#Cc1nc(-c2ccco2)oc1N1CCN(c2ccccc2)CC1 | inconclusive: 39.8 µM [inhibitor, single point] | –
54 | Cc1ccc(NS(=O)(=O)c2cc(C(=O)O)ccc2Cl)c(C)c1 | inconclusive: 4.47 µM [inhibitor, partial curve] | –
55 | CC1(C)C(=O)Nc2ccccc2N1C(=O)COC(=O)c1cc(Cl)cc(Cl)c1 | inconclusive: 31.6 µM [inhibitor, single point] | –
56 | CC[C@]12c3[nH]c4cc(-c5ccco5)ccc4c3CCN1C(=O)[C@@H](CC(=O)NCCC1=CCCCC1)C[C@@H]2C(=O)N1CCN(C(=O)C2CC2)CC1 | inconclusive: 39.8 µM [inhibitor, single point] | –
57 | COc1cccc2c1C(=O)c1c(O)c3c(c(O)c1C2=O)C[C@](O)(C(C)=O)C[C@H]3O[C@@H]1C[C@@H](N)[C@@H](O)[C@@H](C)O1 | – | inactive: -8.7%
58 | CCC(C(=O)NCc1ccco1)n1nc(-c2ccc(OC)cc2)ccc1=O (stereo not given) | – | inactive: -26.6%
59 | FC(F)(F)c1cnc(NNC(=S)Nc2ccc(Cl)cc2)c(Cl)c1 | – | inactive: -9.82%
60 | COc1ccc(O)c(/C=N/NC(=O)c2cc(=O)[nH]c3ccccc23)c1 | inconclusive: 17.8 µM [inhibitor, partial curve] | –
61 | O=C(Nc1ccccc1)c1ccc(NCC2CCCO2)c([N+](=O)[O-])c1 (stereo not given) | inconclusive: 0.891 µM [inhibitor, partial curve, poor fit] | –
62 | CCN(CC)C(CNC(=O)CSc1nnnn1-c1c(C)cccc1C)c1ccco1 (stereo not given) | – | inactive: -4.69%
63 | CCc1ccc(Nc2ccc(S(=O)(=O)N3CCOCC3)cc2[N+](=O)[O-])cc1 | inconclusive: 12.6 µM [inhibitor, partial curve] | –
64 | Cc1csc(SCC(=O)Nc2nc(-c3ccccc3)cs2)n1 | – | inactive: 8.28%
65 | O=C(N/N=C/c1cccc2cccnc12)c1ccccc1O | active: 6.31 µM | –
66 | COc1ccccc1/C=C/C(=O)OCC(=O)NC1CCCCCCC1 | – | inactive: 3.28%
67 | Cc1ccc(C(C(=O)Nc2ccc3c(c2)OCO3)N(C)C(=O)Cc2c[nH]c3ccccc23)cc1 (stereo not given) | – | inactive: -3.45%
68 | O=C(NCc1ccc2c(c1)OCO2)C(=O)NCC(c1ccco1)N1CCN(c2ccccc2)CC1 (stereo not given) | inconclusive: 0.891 µM [inhibitor, full curve] | –
69 | Oc1ccc(Cl)cc1N=Nc1ccccc1 | inconclusive: 15.8 µM [inhibitor, partial curve] | –
70 | CC(C)NC(=O)/C(C#N)=C\c1ccc(N(C)C)c(Br)c1 | inconclusive: 39.8 µM [inhibitor, single point] | –
